Here are results for 86 compounds from PMC4336329 (PLoS ONE, 2015).

Out of some 310,000 compounds screened, about 14,000 (4.5%) showed an effect of 50% or more. The effect is printed as a negative number. The list shows a part of the results.
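Also: peak tail current of the secondary pulse compared with the same well before compound.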

Chain of human ether-à-go-go-related gene (hERG) potassium channel (Q12809 whole entry, looked up): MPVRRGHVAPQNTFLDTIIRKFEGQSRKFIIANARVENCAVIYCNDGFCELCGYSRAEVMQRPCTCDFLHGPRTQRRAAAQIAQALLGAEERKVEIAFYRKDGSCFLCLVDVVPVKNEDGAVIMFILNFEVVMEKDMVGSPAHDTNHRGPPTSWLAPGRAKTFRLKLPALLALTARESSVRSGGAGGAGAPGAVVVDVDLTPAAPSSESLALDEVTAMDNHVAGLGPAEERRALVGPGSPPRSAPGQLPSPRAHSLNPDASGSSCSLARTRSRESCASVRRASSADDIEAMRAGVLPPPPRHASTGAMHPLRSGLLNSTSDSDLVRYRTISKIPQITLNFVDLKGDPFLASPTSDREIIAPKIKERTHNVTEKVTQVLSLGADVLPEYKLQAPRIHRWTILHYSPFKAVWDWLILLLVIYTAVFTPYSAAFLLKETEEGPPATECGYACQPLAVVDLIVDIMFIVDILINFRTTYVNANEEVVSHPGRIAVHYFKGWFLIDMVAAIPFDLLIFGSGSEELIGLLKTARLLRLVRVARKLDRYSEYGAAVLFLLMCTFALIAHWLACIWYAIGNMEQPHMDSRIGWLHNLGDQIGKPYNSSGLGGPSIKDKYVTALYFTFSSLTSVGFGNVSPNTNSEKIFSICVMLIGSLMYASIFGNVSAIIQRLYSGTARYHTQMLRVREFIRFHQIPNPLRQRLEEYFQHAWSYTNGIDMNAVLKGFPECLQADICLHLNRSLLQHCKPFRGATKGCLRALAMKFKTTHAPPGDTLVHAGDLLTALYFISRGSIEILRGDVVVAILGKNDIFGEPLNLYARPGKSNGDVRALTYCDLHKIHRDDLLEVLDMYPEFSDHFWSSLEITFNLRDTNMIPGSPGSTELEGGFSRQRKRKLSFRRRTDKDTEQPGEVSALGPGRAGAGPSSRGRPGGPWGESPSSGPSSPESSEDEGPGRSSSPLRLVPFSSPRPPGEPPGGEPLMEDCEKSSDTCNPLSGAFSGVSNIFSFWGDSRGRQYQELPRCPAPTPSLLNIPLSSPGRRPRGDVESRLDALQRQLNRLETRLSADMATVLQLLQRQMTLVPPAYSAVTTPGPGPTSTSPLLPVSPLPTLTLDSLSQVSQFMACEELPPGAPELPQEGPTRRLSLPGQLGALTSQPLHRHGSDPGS

This experiment addresses human ether-à-go-go-related gene (hERG) potassium channel (human, UniProt Q12809). The experiment can be described thus: primary screen, population patch clamp on CHO cells stably expressing hERG.
Take `FC(F)(F)c1ccc(CN2C[C@@H]3C(c4ccc(C(F)(F)F)cc4)C4(c5cccnc5)CC3(C4)[C@H]2c2ccccc2)cc1` (some centres unmarked): the “hERG current change (%, negative = inhibition) at 10uM” value is given as 13.6%.
As to `Cc1ccc(N=Cc2c(O)[nH]c3ccccc23)c([N+](=O)[O-])c1`, the “hERG current change (%, negative = inhibition) at 10uM” value amounted to 12%.
The result for `Cc1cc(NC(=O)Cc2ccc(Br)cc2)no1` reads 23.2%; that for `O=C(CSc1nnc2ccccn12)Nc1ccccc1C(=O)NC1CC1`, 7.09%.
Turning to `O=C(O)Cc1csc(-c2cccc(Oc3ccccc3)c2)n1`, the “hERG current change (%, negative = inhibition) at 10uM” value was -1.94%.
With `O=C(N/N=C/c1ccncc1)c1cc2c(ccc3ccccc32)o1` the figure was 21.9%; with `O=C(NCCOC(=O)c1ccc(Cl)c(S(=O)(=O)N2CCCCC2)c1)c1ccncc1`, -30.4%; with `CCN1CCN(C(=S)Nc2cccc([N+](=O)[O-])c2)CC1`, -13%.
With `O=C(NC(=S)Nc1ccc(C(F)(F)F)cc1)c1csnn1` the figure was 6.76%; with `COc1ccccc1C(=O)NC(=O)COC(=O)c1cccc(NC(C)=O)c1`, -2.4%; with `CCOc1ccccc1N1C(=O)CN(Cc2ccc(OC)c(OC)c2)C1=S`, 24.9%.
Take `O=C(NC(=S)NCc1ccco1)c1ccccc1`: the “hERG current change (%, negative = inhibition) at 10uM” value is -6.72%.
For `COc1ccc(-c2nc3ncccc3o2)cc1NC(=O)c1cccs1`, the “hERG current change (%, negative = inhibition) at 10uM” value is recorded as -7.85%.
The result for `Br.COc1ccc(Nc2nc(-c3sc(C)nc3C)cs2)cc1` reads -17.5%; that for `CC1Cc2ccccc2N1C(=O)CN(C)S(=O)(=O)c1cccc2cccnc12` (centres unmarked), -18.1%.
The result for `COc1ccc(CNC(=O)CCS(=O)(=O)c2ccc(Br)cc2)cc1` reads 7.33%; that for `O=C(NCCc1ccccc1)c1cc(S(=O)(=O)N2CCCC2)ccc1F`, -14.6%.
With `O=c1[nH]c2cc3c(cc2cc1CN(Cc1cccnc1)C(=S)NCc1ccco1)OCCO3`, the “hERG current change (%, negative = inhibition) at 10uM” value is -5.62%.
With `COc1ccc(Cn2nnnc2CN2CCN(c3ccc(OC)cc3)CC2)cc1` the figure was -3.66%; with `O=C1CCC2S/C(=C/Nc3ccc(C(F)(F)F)cc3)C(=O)N12` (centres unmarked), -52.2%; with `CC1(C)CC(=O)c2c(-c3cccs3)n[nH]c2C1`, -24.9%.
With `COc1ccc(S(=O)(=O)N2Cc3ccccc3CC2C(=O)Nc2nccs2)cc1OC` (centres unmarked) the figure was -4.54%.
As to `Cc1cccc(N2CCN(C(=O)CCCOc3ccccc3)CC2)c1C`, the “hERG current change (%, negative = inhibition) at 10uM” value is on record as -15.4%.
The result for `C=CCNC(=O)N1C2=NC(C(=O)OC)=C(C(=O)OC)[C@@H]3N(Cc4ccccc4)c4ccccc4[C@]23C[C@H]1C(=O)OC` reads 15.3%; that for `CCCCNC(=O)c1ccc(/C=C2\Oc3ccccc3N(C)C2=O)cc1`, -20.4%; that for `CCOC(=O)N1CCc2c(sc(NC(=O)CN3CCN(C)CC3)c2C(=O)Nc2ccccc2)C1`, -77.2%.
The result for `CCC(=O)N1CCc2cc(S(=O)(=O)NCCC(=O)NC3CCCCCC3)ccc21` reads -13.6%; that for `C=CCN1C(=O)C(CC(=O)O)SC1=Nc1ccc(N=Nc2ccccc2)cc1.N` (centres unmarked), 15.9%; that for `O=C(NC1CCCN(c2ccc(C(F)(F)F)cn2)C1)c1cc(Cl)ccc1F` (centres unmarked), 5.34%.
The result for `Cc1cc(NC(CC(C)C)C(=O)O)nc(Cc2ccccc2)n1` (centres unmarked) reads 9.96%; that for `Cc1cc(C(=O)CSc2nnc(N)s2)c(C)n1Cc1cccs1`, 2.28%; that for `COc1ccc(CCNC(=O)C2=COCCO2)cc1`, 18.8%.
Turning to `N#CC[C@H](Cc1ccccc1)N1CC[C@@H](O)CCC1=O`, the “hERG current change (%, negative = inhibition) at 10uM” value is reported as -4.92%.
The result for `COc1ccc(OCCSc2nc(C)nc3ccccc23)cc1` reads 34.5%; that for `Fc1ccc(COc2ccc(C(=S)N3CCCC3)cc2)cc1`, 0.242%.
For the compound `COc1ccc(CN2C(=O)/C(=C/c3ccncc3)SC2=S)cc1`, the “hERG current change (%, negative = inhibition) at 10uM” value amounted to 0.108%.
Regarding `Cc1nn(C)cc1CN(C)C(=O)CCc1nnc(CCC2CCCCC2)o1`, the “hERG current change (%, negative = inhibition) at 10uM” value is reported as -2.64%.
With `CC(=O)NCCNC(=O)[C@H](Cc1ccccc1)NC(=O)c1cccs1` the figure was 2.74%.
Take `CCOc1ccccc1N1CCN(C(=O)c2c(-c3ccccc3Cl)noc2C)CC1`: the “hERG current change (%, negative = inhibition) at 10uM” value was determined as 2.42%.
The result for `COC(=O)C1=C(C)N(CCc2ccccc2)C(=O)C1(NS(=O)(=O)c1ccc(NC(C)=O)cc1)C(F)(F)F` (centres unmarked) reads -11.3%; that for `CN1CCN(c2ccccc2NC(=O)c2cc(Br)ccc2Cl)CC1`, -76.4%; that for `COCCNC(=O)c1onc(CSc2ccncc2)c1C(=O)NCCOC`, 17.7%.
The result for `Cc1ccc(/C(O)=C2\C(=O)C(=O)N(c3cc(C)on3)C2c2cccc(Br)c2)cc1` (centres unmarked) reads 11%; that for `COc1ccc(C2C(C(=O)N3CCOCC3)CCC(=O)N2c2ccc(OC)cc2)cc1` (centres unmarked), 21.1%; that for `CCOCc1nnc(NC(=O)CSCc2ccccc2)s1`, -1.7%.
As for `Cn1c(=O)c2c(nc(N3CCCC3)n2C)n(C)c1=O`, the “hERG current change (%, negative = inhibition) at 10uM” value is recorded as 10%.
With `COc1cccc(C2C(C#N)=C(N)OC(C(C)(C)C)=C2C#N)c1` (centres unmarked) the figure was -19.2%; with `CCCCCCN=Cc1c(O)n(C)c(=O)n(C)c1=O`, -7.16%.
The result for `COc1cc(/C=N/N2CCN(c3ccccc3)CC2)ccc1OC(C)=O` reads -5.1%; that for `C=CCOc1ccc(/C=N/N2C(=O)C(CC(=O)Nc3ccc(F)cc3F)SC2=NC)cc1` (centres unmarked), 7.61%; that for `COc1cccc2c1OCC(C(=O)OCc1cccnc1)=C2`, -17.4%.
For `CC1=CC(=O)NP(=O)(Oc2ccc3ccccc3c2)N1` (centres unmarked), the “hERG current change (%, negative = inhibition) at 10uM” value is 4.73%.
With `CC1CCN(S(=O)(=O)c2ccc3c(c2)N(CC(=O)NCCCN(Cc2ccccc2)C(C)C)C(=O)CO3)CC1`, the “hERG current change (%, negative = inhibition) at 10uM” value is -62.5%.
With `O=C(c1cc(S(=O)(=O)N2CCOCC2)ccc1F)N1CCN(Cc2ccccc2)CC1` the figure was -17.1%; with `COC(=O)C1=C(C)N=C2SC(C#N)=C(N)N2C1c1cccc(OC)c1` (centres unmarked), -7.86%.
Consider `Cc1ccc(CN2CCNC(=O)C2CC(=O)NC2CCCCCC2)cc1` (centres unmarked), for which the “hERG current change (%, negative = inhibition) at 10uM” value is given as -16.4%.
The result for `O=C(COC(=O)c1cc(Cl)ccc1O)NCCNC(=O)COC(=O)c1cc(Cl)ccc1O` reads 21.4%; that for `COc1ccccc1Nc1nc(-c2sc(NC(=O)C(C)(C)C)nc2C)cs1`, 13.8%; that for `CCOC(=O)c1cc(-c2ccccc2)sc1NC(=O)C(C)OC(=O)c1ccncc1` (centres unmarked), 6.25%.
With `C=C(C)CN(CC)CCC(=O)Nc1ccc(OC)cc1OC.Cl` the figure was -1.84%; with `COc1ccc(S(=O)(=O)N2CCCCCC2)cc1C(=O)Nc1ccc(C)cn1`, 11.8%; with `Cc1ccc(CNC(=O)CCS(=O)(=O)c2ccc(Cl)cc2)cc1`, -2.65%.
As to `CCNc1cc(N2CCNCC2)ccc1[N+](=O)[O-]`, the “hERG current change (%, negative = inhibition) at 10uM” value is on record as -4.4%.
For `CC(C)c1ccc(N(CC(=O)NC2CCCC2)C(=O)CCC(=O)Nc2ccccn2)cc1`, the “hERG current change (%, negative = inhibition) at 10uM” value is reported as -15.2%.
With `Cc1cc(C)cc(NC(=O)CSc2nc(CSc3ccc(Cl)cc3)cc(=O)[nH]2)c1` the figure was 8.35%; with `CCn1c(-c2cccn(Cc3ccc(Cl)cc3Cl)c2=O)n[nH]c1=S`, 16.9%.
The result for `CN1CCN(Cc2nnc(-c3ccccc3)o2)CC1` reads 22.7%; that for `COc1ccccc1C(=O)Nc1ccc(OCC(=O)N2CCCCC2C)cc1` (centres unmarked), 1.76%; that for `COc1ccc(/C=C(\NC(=O)c2ccco2)C(=O)NCCc2nc3ccccc3[nH]2)cc1`, -42.6%.
The result for `CC(=O)NC12CC3CC(C1)CC(C(=O)N1CCN(c4ncccn4)CC1)(C3)C2` reads 15.1%; that for `CCOC(=O)c1ccc(N2C(=O)CC(NNC(=O)c3ccc(Br)s3)C2=O)cc1` (centres unmarked), 15.8%; that for `Cc1sc(N2CCN(S(=O)(=O)c3ccc4c(c3)NC(=O)CO4)CC2)nc1-c1ccccc1`, 17.1%.
On to `O=C(Oc1ccc(-c2nc(-c3ccccn3)no2)cc1)c1ccccc1`, for which the “hERG current change (%, negative = inhibition) at 10uM” value is on record as 7.73%.
With `O=C(CSc1ccc2ccccc2c1)NCc1cccs1` the figure was 7.31%; with `COc1cccc(-c2ccc(SCC(=O)N3CCN(c4ccccc4)CC3)nn2)c1`, -37.4%.
The result for `O=C(/C=C/c1cccc([N+](=O)[O-])c1)NC(=S)Nc1ccc(CN2CCOCC2)cc1` reads 1.82%; that for `CCOC(=O)C1CCN(C(=O)c2cc(-c3ccncc3)nc3ccccc23)CC1`, -67.2%.
Consider `COc1cccc2cccc(/C=N/n3cnnc3)c12`, for which the “hERG current change (%, negative = inhibition) at 10uM” value is listed as -12.7%.
With `CCc1nnc(NC(=O)c2ncc(Cl)c(Cl)c2Cl)s1` the figure was 12.9%; with `O=[N+]([O-])c1ccc(C[n+]2cccc3c4ccccc4ccc32)cc1.[Br-]`, -40.5%.
`CCOc1ccc(NC(=O)c2cnccn2)cc1`: the “hERG current change (%, negative = inhibition) at 10uM” value was -2.81%.
As to `CN(c1ccccc1)S(=O)(=O)c1cccc(NC(=O)c2ccncc2)c1`, the “hERG current change (%, negative = inhibition) at 10uM” value is listed as -24.9%.
In the case of `COc1ccc(NC(=O)c2cccc3c2C(=O)N(CC2CCCO2)C3)cc1OC` (centres unmarked), the “hERG current change (%, negative = inhibition) at 10uM” value is -17.9%.
The result for `CC(=O)c1ccc(N2CCN(C(=O)c3ccc(Br)cc3)CC2)c(F)c1` reads -47.8%; that for `O=C(/C=C/c1cccc([N+](=O)[O-])c1)Nc1ccc(Cl)cn1`, -12.1%.
Regarding `O=C(Cn1c(O)c(N=NC(=O)c2ccncc2)c2ccccc21)Nc1ccccc1`, the “hERG current change (%, negative = inhibition) at 10uM” value is -7.1%.
